# Assay results taken from PubChem BioAssay AID493208 (National Center for Advancing Translational Sciences (NCATS), 2011).
# Among all 44,000 compounds or so, about 340 (0.77%) were called active. Not shown: some 5% with an inconclusive outcome. Calls follow the shape of the dose curve; as a rule, active = well fitted inhibition curve with a large enough effect; inconclusive = small, poorly fitted or top-dose-only effect; inactive = flat fitted curve, though single readings scatter. This is one part of the list.
# Assay: Acumen qHTS Assay for Inhibitors of the mTORC1 Signaling Pathway in MEF (Tsc2-/-, p53-/-) Cells: Sytravon; also: nearly all actives have a fitted effect of over 50% in size;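 as to activity change, negative = inhibition: plate controls were DMSO for no effect and rapamycin for full effect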
# Settings: phospho-rpS6 immunofluorescence/PI, 24 h; series mostly up to 38.3 µM; activity change, negative = inhibition: at the top concentration
# Outline: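 Tsc2-/-, p53-/- mouse embryonic fibroblasts (empty-vector line) exposed to compound 24 hrs at 37 C, fixed, immunostained for phospho-rpS6 and counterstained with propidium iodide. Acumen laser scanning gives % positive cells from Alexa 488/PI ratio, thresholded using 7.5 nM rapamycin; PI count gives viability.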
# Potency is read from the fitted curve at half-maximal effect.
SMILES,"activity change, negative = inhibition",Potency
CC(=O)c1c(C)n(-c2cccc(C)c2)c2ccc(OC(=O)COc3ccccc3)cc12,inactive: -0.375%,–
COc1cccc(-c2cc(C(=O)NCCc3ccc(C)cc3)[nH]n2)c1,inactive: -9.48%,–
O=C(Nc1ccc(Br)cc1)c1ccc(Br)c(S(=O)(=O)NCc2ccccc2)c1,inactive: -19.4%,–
CCOc1ccc(CNC(=O)Cn2nc(C)c3sc4ccccc4c3c2=O)cc1,inactive: -5.34%,–
COc1ccc(C)cc1NC(=O)CN1C(=O)CCc2cc(S(=O)(=O)N3CCOCC3)ccc21,inactive: 0%,–
CCc1nn(CC(=O)Nc2c(C)cc(C)cc2C)c(=O)c2cc3sccc3n12,inactive: -10.1%,–
Cc1ccc(N(C)S(=O)(=O)c2ccc3[nH]cc(C(=O)O)c(=O)c3c2)cc1C,inactive: -1.55%,–
Cc1ccc(C(c2sc3nc(-c4ccco4)nn3c2O)N2CCCCC2)cc1 (stereo unspecified),inactive: -0.554%,–
CC(=O)c1ccc(NC(=O)CSc2nc(-c3ccccc3F)nc3c2c(=O)n(C)c(=O)n3C)cc1,inactive: 8.16%,–
CCOC(=O)c1c(-c2ccc(C)cc2)csc1NC(=O)c1cc(=O)c2cc(C)c(C)cc2o1,inactive: 1.12%,–
CC1Cc2cc(S(=O)(=O)NCc3ccc(F)cc3)ccc2N1C(=O)C1CCC1 (stereo unspecified),inactive: -8.34%,–
Cc1ccc(NC(=O)C2CCN(c3nc4ccccc4[nH]3)CC2)cc1Cl,inactive: 9.21%,–
O=C(NCc1cccs1)c1ccc(CSc2nc3ccncc3n2Cc2cccc(F)c2)cc1,inactive: 1.33%,–
O=C(NC1(C(F)(F)F)NC(=O)N(CCc2ccccc2)C1=O)c1ccccc1F (stereo unspecified),inactive: -6.14%,–
Cc1ccc(NC(=O)CCc2c(C)nn(-c3ccc(N4CCCCC4)nn3)c2C)cc1F,inactive: -14.3%,–
COc1cccc(CSc2nc3cc(OC)c(OC)cc3c3nc(CCn4nc(C)cc4C)nn23)c1,inactive: -0.352%,–
CCOc1ccc2nc(N(Cc3cccnc3)C(=O)c3ccc4c(c3)OCCO4)sc2c1,inactive: 1.72%,–
COC(=O)c1cc2sc(C)cc2n1Cc1ccc(F)cc1Cl,inactive: 0.247%,–
COC(=O)c1c(C)oc2c1cc(NS(=O)(=O)c1c(C)cc(C)cc1C)c1ccccc12,inactive: 0.11%,–
O=S(=O)(c1ccc(Cl)cc1)c1nc(-c2ccccc2Br)oc1N1CCOCC1,inactive: 11.1%,–
Cn1c(=O)c2c(nc(NCCc3ccccc3)n2Cc2cccc(Br)c2)n(C)c1=O,inactive: 4.16%,–
O=c1n(Cc2ccc(F)cc2Cl)c2ccccc2c2nc(-c3ccccc3)nn12,inactive: 3.19%,–
COc1ccc2c(c1)CCc1c(C(=O)Nc3c(C)nn(Cc4ccccc4Cl)c3C)noc1-2,inactive: -3.35%,–
Cc1ccc(CCNC(=O)c2nnc(Cc3cccc(F)c3)o2)cc1,inactive: 3.41%,–

SMILES,"activity change, negative = inhibition",Potency
CC1Cc2ccccc2N1S(=O)(=O)c1nnc(NC(=O)c2ccccc2Br)s1 (stereo unspecified),inactive: -0.964%,–
COc1ccc(-c2cn3nc(N4CCCC(C(=O)Nc5ccc(Cl)cc5C)C4)sc3n2)cc1 (stereo unspecified),inactive: 5.53%,–
COc1ccc(S(=O)(=O)NCC(c2cccs2)S(=O)(=O)c2ccc(C)cc2)cc1F (stereo unspecified),inactive: -0.838%,–
Cc1[nH]c2ccc(F)cc2c1CCNC(=O)c1cc2cc(Cl)ccc2oc1=O,inactive: 2.89%,–
CC(C)Oc1ccc(C(=O)Nc2ccc3oc(-c4ccncc4)nc3c2)cc1,inactive: 4.22%,–
COc1cc(NC(=O)C(NC(=O)C2CCC(C)CC2)C(C)C)cc(OC)c1OC (stereo unspecified),inactive: -15.8%,–
COc1ccc(Cl)cc1NS(=O)(=O)c1c(C)nc2scc(C)n2c1=O,inactive: 5.61%,–
Cc1ccc(CNC(=O)c2c[nH]c3ccc(S(=O)(=O)Nc4ccc(C(C)C)cc4)cc3c2=O)cc1,inactive: -2.97%,–
COCCn1c(CNC(=O)c2cc([N+](=O)[O-])ccc2Cl)nc2cccnc21,inactive: 1.02%,–
COc1ccc(C(=O)Nc2onc3c2CCCC3)cc1,inactive: 5.32%,–
COc1ccc(NC(=O)Cn2cnc3c(nc4n3CCCCC4)c2=O)c(OC)c1,inactive: -5.15%,–
COCCCn1c(=N)c(C(=O)NC2CCCCC2)cc2c(=O)n3ccccc3nc21,inactive: -6.09%,–
COc1ccc(C2=CC(c3ccc(N(C)C)cc3)n3nnnc3N2)cc1 (stereo unspecified),inactive: -6.07%,–
Cc1c(CNC2CCCCCC2)c(C(=O)O)c(C)n1Cc1c(F)cccc1Cl,inactive: -3.04%,–
CCOC(=O)c1ccccc1NC(=O)Cc1c(C(=O)O)c(C)cn1C,inactive: -0.0106%,–
CCOC(=O)c1ccc(N2C(=O)c3n[nH]c(C)c3C2c2ccc(O)c(OC)c2)cc1 (stereo unspecified),inactive: -6.26%,–
COc1ccc(N2CCN(C(=O)Cn3cnc4sc(C)c(S(=O)(=O)N5CCC(C)CC5)c4c3=O)CC2)cc1,inactive: -18.5%,–
Cc1ccc(-n2ncc(C(=O)N3CCN(c4ccccn4)CC3)c2C2CCN(C(=O)OC(C)(C)C)CC2)cc1C,inactive: -2.52%,–
Cc1cc(=O)oc2c3c(ccc12)OCN(Cc1ccccc1Cl)C3,inactive: -3.58%,–
Cc1cccc(CS(=O)(=O)CC2Nc3ccc(C(=O)NCc4ccccc4)cc3NC2=O)c1 (stereo unspecified),inactive: 4.66%,–
O=S(=O)(NCc1ccc(F)cc1)c1ccc2[nH]c3c(c2c1)CCCCC3,inactive: 9.8%,–
CCOC(=O)c1nc(Nc2ccc(OC)cc2)c2ccccc2n1,inactive: 4.25%,–
Cc1ccccc1Nc1c(-c2cccc(O)c2)nc2ccc(Br)cn12,inactive: -25.1%,–
CC(C)CCNC(=O)c1ccc(Cn2c(=O)c3cccn3c3cccnc32)cc1,inactive: 1.56%,–

SMILES,"activity change, negative = inhibition",Potency
Cc1ccc(-c2nn(-c3cccc([N+](=O)[O-])c3)c3c2cnc2ccc(F)cc23)cc1,inactive: 0%,–
CCOc1ccc(CNC(=O)c2ccc3c(c2)sc2nc(-c4ccc(OC)cc4)cn23)cc1,inactive: -16.2%,–
COc1cc(OC)c(NC(=O)CSC2=Nc3ccccc3N=C(c3ccc(F)cc3)C2)cc1Cl,inactive: -1.97%,–
Cc1cccc(Nc2nc(Nc3cccc(C)c3)nc(N3CCOCC3)n2)c1,–,active: 1170 nM
Cc1cc2c(n1-c1ccc(C(=O)NCC(C)c3ccccc3)cc1)CCCC2 (stereo unspecified),inactive: -6.73%,–
Cc1sc(C2C(C#N)=C(N)N(c3cccc(Cl)c3)C3=C2C(=O)CCC3)cc1CN1CCOCC1 (stereo unspecified),inactive: 4.93%,–
COc1ccc(-c2n[nH]c3c2C(c2ccc(Cl)cc2Cl)NC3=O)cc1 (stereo unspecified),inactive: -27.9%,–
COc1ccc(-n2c(=O)c3c(c4cc(OC)ccc4n3C)n(CC(=O)NCC3CCCO3)c2=O)cc1 (stereo unspecified),inactive: 0.202%,–
CCN(CCCNC(=O)c1ccc(Sc2ccc(C)cc2)c(NC(C)=O)c1)c1cccc(C)c1,inactive: 6.53%,–
CCOc1cccc(C(=O)Nc2ccc3oc(-c4ccc(C(C)(C)C)cc4)nc3c2)c1,inactive: -23.4%,–
Cc1ccc2oc(-c3ccc(C)c(NC(=O)c4ccc5c(c4)OCCO5)c3)nc2c1,inactive: -2.37%,–
Cc1ccc(F)cc1NC(=O)CCc1c(C)nn(-c2ccc(N3CCCCC3)nn2)c1C,inactive: -1.44%,–
CC(CCO)Nc1nc2c(c(=O)n(C)c(=O)n2C)n1Cc1ccc(Br)cc1 (stereo unspecified),inactive: -3.69%,–
C#CCSc1nc2sc3c(c2c(=O)n1-c1cccc(OC)c1)CCN(C(C)=O)C3,inactive: -2.57%,–
Cc1ccc(S(=O)(=O)Nc2ccc(-c3ccc(N4CCCCCC4)nn3)cc2)cc1C,inactive: 1.77%,–
CCOC(=O)c1ccc(-c2ccc(/C=C(\C#N)C(=O)Nc3c(C)cccc3Cl)o2)cc1,inactive: -2.24%,–
COc1cc(Cl)c(NC(=O)c2cc(S(=O)(=O)N3CCOCC3)cn2C)c(OC)c1,inactive: 1.96%,–
CCc1nn2c(-c3ccco3)ccnc2c1-c1ccc(F)cc1,inactive: -0.229%,–
CC(C)(C)NC(=O)Cn1cc(S(=O)(=O)Cc2ccc(F)cc2)c2ccccc21,inactive: 0.638%,–
CC1CCN(c2ccc(-c3cccc(NS(=O)(=O)c4ccc(Cl)s4)c3)nn2)CC1,inactive: 0%,–
CCCOc1ccc(-c2nonc2NC(=O)COc2ccc(C)cc2)cc1OCCC,inactive: 2.34%,–
COCCn1c(SCC(=O)c2ccc(OC)cc2)nc2cc(C(=O)NC3CCCC3)ccc2c1=O,inactive: -1.63%,–
CCOC(=O)CNC(c1ccccc1)c1cc(Br)ccc1NC(=O)c1ccc(Cl)cc1 (stereo unspecified),inactive: 1.62%,–
Cc1ccc(S(=O)(=O)c2nnn(CC(=O)Nc3ccccc3C)c2N)cc1C,inactive: -6.61%,–

SMILES,"activity change, negative = inhibition",Potency
CCC(=O)Nc1ccc2nc(SCCOc3cccc(C)c3)sc2c1,inactive: -3.32%,–
O=C(CCC1N=C2c3ccccc3N=C(SCc3ccccc3Cl)N2C1=O)NCc1cccs1 (stereo unspecified),inactive: 1.2%,–
O=C(NCc1ccccc1F)C(=O)NCC(c1cccs1)S(=O)(=O)c1cccs1 (stereo unspecified),inactive: -0.995%,–
CCOc1ccc(OCC)c(NC(=O)c2cnc3c(-c4ccccc4)c(C)nn3c2C)c1,inactive: 2.04%,–
CC(C)Cc1ccc(S(=O)(=O)Nc2ccc3[nH]c(=O)[nH]c3c2)cc1,inactive: -11.2%,–
COC(=O)c1cc2oc(C)cc2n1Cc1cccc(Cl)c1,inactive: -16.8%,–
Cc1ccc(-n2c(=O)c3c(c4cc(C)ccc4n3C)n(CC(=O)NCCC3=CCCCC3)c2=O)cc1,inactive: 0.52%,–
O=c1c2oc3ccccc3c2n(Cc2cccc(Cl)c2)c(=O)n1Cc1ccc2c(c1)OCO2,inactive: 1.52%,–
COc1ccccc1OCC(=O)NCC1(N2CCOCC2)CCCCC1,inactive: 1.22%,–
O=C(NCc1cccc(Cl)c1)c1ccc(CS(=O)Cc2ccccc2Cl)o1 (stereo unspecified),inactive: -14.9%,–
O=c1oc2c(F)cc(F)cc2cc1S(=O)(=O)c1ccc(F)cc1,inactive: 1.27%,–
Cc1ccc(Cc2nc3ccccc3nc2SCC(=O)N2CCCCC2)cc1,inactive: -3.29%,–
Cc1nc(C)c(CCNS(=O)(=O)c2ccc(C)c(C)c2)s1,inactive: -15.7%,–
CCOc1ccccc1NC(=O)c1c(NCc2ccc(C)o2)sc2c1CCCCC2,inactive: -10.1%,–
CCOc1ccc(N(CC)C(=O)c2cc3c(=O)oc4ccccc4c3s2)cc1,inactive: 3.16%,–
CCOc1ccc(CN2CCN(S(=O)(=O)c3ccc(Cl)cc3)CC2)cc1,inactive: 13.9%,–
Cc1oc(-c2ccccc2F)nc1CN1CCC(C(=O)NCCc2ccc(Cl)cc2)CC1,inactive: -6.76%,–
O=C(Cn1cc(S(=O)(=O)c2ccc(F)cc2)c(=O)c2cc3c(cc21)OCO3)Nc1ccccc1,inactive: -20.5%,–
Cc1ccn2c(=O)c(C(=O)Nc3ccc(F)c(C(F)(F)F)c3)cnc2c1,inactive: -5.17%,–
CCOc1ccc(-c2nonc2NC(=O)c2oc3ccc(Cl)cc3c2C)cc1,inactive: -19.3%,–
Cc1cccc(NC(=O)C(=O)NCC(c2cccnc2)N2CCc3ccccc32)c1C (stereo unspecified),inactive: 6.89%,–
COC(=O)c1ccccc1NC(=O)CCCn1nc(C)c2sc3ccccc3c2c1=O,inactive: 0.771%,–
COc1cccc(NC(=O)c2oc3ccccc3c2NC(=O)COc2ccccc2C)c1,inactive: -15%,–
COc1ccc(-c2nnn3c2nc(NCc2ccccc2)c2ccccc23)cc1,inactive: -24%,–
